Test results taken from paper PMC4336329 (PLoS ONE, 2015).
About 2,200 (0.71%) of roughly 310,000 compounds showed an effect of 50% or more. Effects have a minus sign here. The list shows a part of the results.

biological target: human ether-à-go-go-related gene (hERG) potassium channel (human, UniProt Q12809); test: primary screen, population patch clamp on CHO cells stably expressing hERG
Sequence (Q12809 whole entry, looked up): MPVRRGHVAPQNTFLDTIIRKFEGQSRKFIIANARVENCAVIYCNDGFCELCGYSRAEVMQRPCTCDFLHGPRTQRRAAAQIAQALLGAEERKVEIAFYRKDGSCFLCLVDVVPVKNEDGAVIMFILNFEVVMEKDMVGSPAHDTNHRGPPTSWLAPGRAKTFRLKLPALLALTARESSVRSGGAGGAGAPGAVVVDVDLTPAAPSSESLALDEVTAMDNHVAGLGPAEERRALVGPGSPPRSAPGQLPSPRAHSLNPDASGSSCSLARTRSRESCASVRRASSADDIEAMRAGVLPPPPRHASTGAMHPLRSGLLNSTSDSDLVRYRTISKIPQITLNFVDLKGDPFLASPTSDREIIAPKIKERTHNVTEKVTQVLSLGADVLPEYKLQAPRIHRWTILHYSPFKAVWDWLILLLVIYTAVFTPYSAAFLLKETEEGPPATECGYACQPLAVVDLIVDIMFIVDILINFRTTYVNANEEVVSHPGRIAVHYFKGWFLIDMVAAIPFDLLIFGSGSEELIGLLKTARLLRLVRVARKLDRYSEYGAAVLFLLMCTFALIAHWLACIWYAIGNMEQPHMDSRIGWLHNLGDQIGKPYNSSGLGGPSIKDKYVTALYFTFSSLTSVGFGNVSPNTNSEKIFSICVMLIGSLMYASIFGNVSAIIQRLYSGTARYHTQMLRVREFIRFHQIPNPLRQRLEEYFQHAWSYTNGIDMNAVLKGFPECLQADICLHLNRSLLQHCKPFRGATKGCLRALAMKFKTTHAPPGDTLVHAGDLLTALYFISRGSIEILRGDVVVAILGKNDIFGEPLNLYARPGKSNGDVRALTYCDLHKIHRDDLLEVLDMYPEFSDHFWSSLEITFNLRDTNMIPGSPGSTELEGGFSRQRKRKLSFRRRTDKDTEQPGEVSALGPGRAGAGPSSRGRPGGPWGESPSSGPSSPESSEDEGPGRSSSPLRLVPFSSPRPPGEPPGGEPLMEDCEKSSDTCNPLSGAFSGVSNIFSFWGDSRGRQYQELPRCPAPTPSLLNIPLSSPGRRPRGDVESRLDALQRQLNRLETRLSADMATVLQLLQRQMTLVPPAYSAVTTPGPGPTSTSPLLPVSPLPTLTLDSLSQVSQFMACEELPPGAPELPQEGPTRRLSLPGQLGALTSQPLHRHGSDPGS

SMILES	hERG current change (%, negative = inhibition) at 1uM
O=C(NCC1CCN(C(=O)c2cccc([N+](=O)[O-])c2)CC1)c1cccc([N+](=O)[O-])c1	-5.98%
O=C(COC(=O)C1CCN(C(=O)c2ccc(Cl)cc2)CC1)NC1CCS(=O)(=O)C1 (centres unmarked)	15%
COc1ccc(N2C(=O)CCC(C(=O)N3CCCCCC3)C2c2ccc(OC)c(OC)c2)cc1 (centres unmarked)	8%
CCSc1nnc(-c2cc(Br)ccc2N=Cc2c(C)[nH]n(-c3ccccc3)c2=O)c(=O)[nH]1	6.56%
COc1ccc(CNS(=O)(=O)c2cc(-c3cc(C)no3)ccc2C)cc1OC	4.36%
Cc1cccc(C)c1NC(=O)c1cccc2c1-c1ccccc1C2=O	3.44%
C/C(=N\NC(=O)c1ccc(O)cc1)c1ccc2c(c1)Nc1ccccc1S2	4.97%
Cn1c(/C(C#N)=C(\O)c2ccc([N+](=O)[O-])cc2)nc2ccccc21	17%
COC(=O)/C(=C/N(C)C)C(=O)N1CCN(c2ccc(Cl)c(Cl)c2)CC1	5.92%
N#C/C(=C/N1CCOCC1)c1ccccc1	-10.6%
COc1cc(OC)c(OC)cc1CNCCc1ccc(F)cc1.O=C(O)C(=O)O	4.3%
Cc1ccccc1CN1CCN(C(C)C(=O)NNC(=O)c2ccc(F)cc2)CC1 (centres unmarked)	9.27%
COc1cccc(CNC(=S)Nc2cc(OC)ccc2OC)c1	16.3%
N#Cc1ccc(C(=O)CN2CCN(c3ccccc3)CC2)cc1	0.529%
CC(=O)Nc1ccccc1O	17.5%
Cc1cccc(/N=C2/NC(=O)C(Cc3ccccc3)S2)n1 (centres unmarked)	5.91%
CCOCCCNC(=O)C1c2ccccc2Oc2ccccc21	13.5%
CC1CCCCC1NC(=O)Cn1cnc2ccccc2c1=O (centres unmarked)	10.5%
CC(=O)Nc1ccc(N2C(=O)CSC2c2ccc([N+](=O)[O-])cc2)cc1 (centres unmarked)	7.42%
O=c1c2[nH]c3ccccc3c2ncn1CCN1CCCCC1	-21.4%
CCN(CC(=O)Nc1c(F)cccc1F)C(=O)c1cn2ccccc2n1	22.5%
N#C/C(=C/c1cn[nH]c1-c1cccc(Br)c1)C(=O)O	11.4%
CCN(CC)C(=O)CSc1nnc(-c2c[nH]c3ccccc23)o1	10.3%

SMILES	hERG current change (%, negative = inhibition) at 1uM
COc1ccc(NS(=O)(=O)c2ccc(C)c(C(=O)N(C)Cc3ccc(OC)cc3OC)c2)cc1	12.6%
CCOC(=O)c1ccccc1NC(=O)c1cc2sccc2n1C	9.57%
CCn1c2ccccc2c2cc(NC(=O)CN3CCCC3)ccc21	11.6%
Cc1ccc(N2C(=O)C(O)(C(F)(F)F)C3=C2CC(C)(C)CC3=O)cc1C (centres unmarked)	13.5%
O=C(NNC1=NCCC1)c1ccc(Br)cc1	6.31%
COc1cc2c(cc1OC)C(C(=O)Nc1cc(C)c(OC)c(C)c1)CC(=O)N2 (centres unmarked)	11.9%
COc1ccc([N+](=O)[O-])cc1NC(=O)c1csc(C)c1	6.51%
O=C(COC(=O)c1cc(-c2ccccc2Cl)nc2ccccc12)Nc1ncc(C(F)(F)F)cc1Cl	0.4%
O=C(N/N=C/c1ccncc1)c1cccs1	9.87%
O=C(Nc1ccc2nsnc2c1)C1CC1	5.31%
NNC(=O)c1nc(-c2cccc(-n3cccc3)c2)no1	10.7%
COc1ccccc1NC(=S)N(CCCN1CCOCC1)Cc1cccs1	-2.25%
N#Cc1cc2c(nc1SCc1ccccc1)CCCC2=O	4.84%
COc1ccc(/C=N/NC(=O)CCc2ccccc2)cc1O	6.15%
Cc1cc(NC(=O)Nc2ccc(F)cc2F)n(C)n1	6.74%
CN1CCN(c2oc(/C=C/c3ccccc3)nc2C#N)CC1	-3.19%
CC(=O)c1cc(-c2ccccc2)n(CC(=O)NC2CCCCC2)c1C	5.1%
CC(OC(=O)[C@H](C)NC(=O)c1ccccc1Cl)C(=O)NCc1ccc2c(c1)OCO2 (some centres unmarked)	-3.86%
CC/C(C)=N\N=C\c1c(O)n(CC)c2cc(C3=NNC(=O)CC3)ccc12	-1.63%
O=C(Cc1ccccc1)NNC(=O)Nc1ccc(Cl)c(Cl)c1	16.7%
CN1C(=O)SC(Nc2ccccc2)C1=O (centres unmarked)	10.6%
CCN(CC)S(=O)(=O)c1ccc(OC)c(NS(=O)(=O)c2ccc(F)cc2)c1	3.23%
COc1ccc(OCCC(=O)OCC(=O)Nc2cccc(Br)c2)cc1	0.704%

SMILES	hERG current change (%, negative = inhibition) at 1uM
CNC(=O)NC(=O)CSc1nnc(-c2ccco2)n1Cc1ccccc1	0.532%
O=C(COc1ccccc1)N1CCN(C/C=C/c2ccccc2)CC1	-30.3%
CC(CN1CCCCC1)OC(=O)C1c2ccccc2Oc2ccccc21.Cl (centres unmarked)	7.27%
COCCN(Cc1nc2ccccc2c(=O)[nH]1)C(=O)COc1c(C)cc(Cl)cc1C	16.3%
COC(=O)c1ccc(C2NC(=S)N(c3ccccc3)C(C)=C2C(=O)Nc2ccccc2OC)cc1 (centres unmarked)	11.3%
CCCNC(=O)NC(=O)CSc1nnc(C)n1N	14.1%
COc1ccc(CCN2CC(C(=O)N(C)Cc3ccccc3OC)CCC2=O)cc1 (centres unmarked)	26.7%
Nc1cc(-c2ccncc2)c[nH]c1=O	9.48%
O=C(N/N=C/C(Br)=C/c1ccccc1)c1cc(-c2ccco2)[nH]n1	9.32%
CCOC(=O)N1CCN(C(=O)COc2ccc(Cl)c(C)c2)CC1	6.49%
O=C(CCCOc1ccc(Cl)cc1Cl)Nc1nnc(C2CC2)s1	12.3%
COc1cc(OC)c(NC(=S)Nc2cc(Cl)cc(Cl)c2)cc1Cl	11.4%
CCCCCCn1cc(C(=O)OCC)c(=O)c2cc(F)c(F)cc21	-21%
Cc1ccc2nc3sc(C(=O)Nc4c(C)[nH]c(=O)[nH]c4=O)c(N)c3cc2c1	11.6%
COc1ccc(-c2[nH]ncc2CN(C)Cc2nonc2C)c(OC)c1	21.9%
CCOC(=O)C1=C(C)Nc2nc(SCC)[nH]c(=O)c2C1c1ccncc1 (centres unmarked)	6.82%
CC(C)NC(=O)NC(=O)COC(=O)CCOc1ccccc1	10.5%
CCCOc1ccc(/C=N/NC(=O)CSCc2ccc([N+](=O)[O-])cc2)cc1OCC	4.57%
COCCNC(=O)COc1cc(=O)n(C)c2ccccc12	0.268%
CCOP(=O)(c1ccccc1)C(O)c1ccc([N+](=O)[O-])cc1 (centres unmarked)	14.9%
Cc1cccc(-n2nc(CC#N)c(C#N)c2N)c1	16.3%
CCN(CC)C(=O)C1CCCN(Cc2ccccc2C(F)(F)F)C1 (centres unmarked)	-2.75%
CS/C(=C/[N+](=O)[O-])Nc1cccc2c1C(C)CC2(C)C (centres unmarked)	1.56%

SMILES	hERG current change (%, negative = inhibition) at 1uM
CCNS(=O)(=O)c1ccc(Br)c(OC)c1	10.4%
Cn1c(NC(=O)c2ccccc2)c(-c2cccs2)c(=O)c2ccccc21	15.7%
Cn1ncc(Cl)c1C(=O)NNC(=O)Nc1cccc2ccccc12	11.5%
CCOC(=O)N1CCC(N(CCN(C)C)C(=S)Nc2ccccc2OCC)CC1	5.48%
COc1ccc(CNC(=O)CNS(=O)(=O)c2cccc(C#N)c2)cc1OC	8.72%
CN(C)NC(=S)NC1(C)CCS(=O)(=O)C1 (centres unmarked)	9.47%
CCC(C)[C@H]1CN=C(N)N1CCc1cccc(F)c1 (some centres unmarked)	-2.41%
CN(C)C(=O)CSc1nnc(-c2ccc(S(=O)(=O)N3CCCC3)cc2)n1C	17.3%
CCOc1cc(/C=C2\CCCc3c2nc2ccccc2c3C(=O)O)ccc1OC	12.8%
Cc1ccc(C2=CSC3=NNC4(CCCCC4)NN23)cc1	12.7%
CC(=O)Nc1sc(N)nc1-c1ccccc1	8.87%
CCc1cccc2cc3c(N)c(C(=O)Nc4ccc(S(=O)(=O)N5CCCC5)cc4)sc3nc12	10.5%
COc1ccc(NC(=O)CCc2nc(-c3ccccc3F)no2)cc1	2.69%
CCn1c(COc2ccc(Cl)cc2)nnc1SCC(=O)Nc1ccc2c(c1)OCCO2	18.4%
CC(/C=C1\SC(=S)N(CC(=O)O)C1=O)=C\c1ccccc1	12.5%
CC(C)C(c1nnnn1C1CCCC1)N1CCOCC1 (centres unmarked)	12%
CCOc1ccc(-c2nnc(SCC(=O)N3CCCC3)o2)cc1	7.9%
Cc1nn2c(N3CCN(C)CC3)c3c(nc2c1-c1ccccc1)CCCC3	-1.53%
Cc1ccc(NC(=O)COc2ncnc3sccc23)cc1S(=O)(=O)N(C)C	-1.17%
O=C(Nc1ccc(Br)cc1Br)c1cccc2c1C(=O)N(C1CCCCC1)C2	19.3%
Cc1cc(OCC(=O)N2CCC(C(=O)O)CC2)c2c3c(c(=O)oc2c1)CCC3	-6.23%
CCOC(=O)C1CCN(S(=O)(=O)c2ccc3oc(=O)ccc3c2)CC1	-78.2%
COc1cccc(C(c2nnnn2CC2CCCO2)N2CCN(C(=O)c3ccco3)CC2)c1OC.Cl (centres unmarked)	8.64%
